# Test results as given in patent US20230295316A1 (FRED HUTCHINSON CANCER CENTER, published 2023).
# Numbering of substitutions follows the chain as printed.
# T1: Hs_CD123_6His-Avi (CD123 ECD-His-Avi fusion protein) (human, UniProt P26951 19-303)
# T1 construct: The signal peptide is marked only by bold type, so its limits cannot be read here and were not guessed; also called His-Avi tagged peptide encompassing the ECD of human CD123
# T1 sequence: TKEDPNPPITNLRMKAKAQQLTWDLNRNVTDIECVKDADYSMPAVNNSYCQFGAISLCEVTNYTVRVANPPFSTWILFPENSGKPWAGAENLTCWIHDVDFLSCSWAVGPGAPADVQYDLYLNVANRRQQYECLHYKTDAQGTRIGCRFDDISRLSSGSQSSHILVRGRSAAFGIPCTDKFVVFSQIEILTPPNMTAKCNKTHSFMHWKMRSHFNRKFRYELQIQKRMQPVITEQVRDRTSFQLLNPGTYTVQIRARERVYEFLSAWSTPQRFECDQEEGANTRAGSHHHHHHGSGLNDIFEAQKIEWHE
# B1: HuV1-10C4, recombinant humanized 10C4, human IgG1 framework (antibody)
# heavy: QVQLQESGPGLVKPSETLSLTCTVSGFSLTTYDINWIRQPPGKGLEWIGVIWTGGGTNYNSAFMSRVTISVDTSKNQFSLKLSSVTAADTAVYYCARADTYHYALDFWGQGTLVTVSS[human IgG1 constant region not printed]
# light: DIVMTQSPDSLAVSLGERATINCKSSQSLLSSGTRKNYLAWYQQKPGQPPKLLIYWASTRESGVPDRFSGSGSGTDFTLTISSLQAEDVAVYYCKQSYILFTFGQGTKLEIKRTVAAPSVFIFPPSDEQLKSGTASVVCLLNNFYPREAKVQWKVDNALQSGNSQESVTEQDSKDSTYSLSSTLTLSKADYEKHKVYACEVTHQGLSSPVTKSFNRGEC
# notes: also called CD123-HuV1-10C4; HuV1-10C4_IgG1
# B2: HuV1-10C4, recombinant humanized 10C4, human IgG4 framework (antibody)
# heavy: QVQLQESGPGLVKPSETLSLTCTVSGFSLTTYDINWIRQPPGKGLEWIGVIWTGGGTNYNSAFMSRVTISVDTSKNQFSLKLSSVTAADTAVYYCARADTYHYALDFWGQGTLVTVSSASTKGPSVFPLAPCSRSTSESTAALGCLVKDYFPEPVTVSWNSGALTSGVHTFPAVLQSSGLYSLSSVVTVPSSSLGTKTYTCNVDHKPSNTKVDKRV[human IgG4 Fc with S228P (EU numbers) not printed]
# light: B1 light
# notes: also called CD123-HuV1-10C4; HuV1-10C4_IgG4
# B3: HuV2-10C4, recombinant humanized 10C4, human IgG4 framework (antibody)
# heavy: B2 heavy with I34W, N35S, V50Y, S61P, A62S, F63L, M64K, A96V, A98G
# light: B1 light
# notes: Light chain as for the HuV2 IgG1 form (see there); Signal peptides left out as for HuV1; also called CD123-HuV2-10C4; HuV2-10C4_IgG4
# B4: HuV2-10C4, recombinant humanized 10C4, human IgG1 framework (antibody)
# heavy: B1 heavy with I34W, N35S, V50Y, S61P, A62S, F63L, M64K, A96V, A98G
# light: B1 light
# notes: No full light chain is headed HuV2; Signal peptides left out as for HuV1; also called CD123-HuV2-10C4; HuV2-10C4_IgG1
# Target: T1, Hs_CD123_6His-Avi (CD123 ECD-His-Avi …)
# Assay: SPR (Biacore T-100), univalent affinity; antibody captured on the CM4 chip, human CD123 ECD as analyte
# Method: FIGS. 13A-13B. Surface plasmon resonance (Biacore T-100) analyses were performed to rigorously/precisely determine univalent binding affinities of recombinant chimeric and humanized versions of the anti-human CD123 monoclonal antibody 10C4, using (FIG. 13A) human IgG1 and (FIG. 13B) human IgG4 frameworks. For these experiments, a peptide encoding the complete extracellular portion of human CD123 was used, and the antibodies were captured on the biosensor chip (CM4) via a Fc gamma-specific goat anti-human IgG and amine coupling.
Kd,koff,kon,Binder
6.09 nM,0.000556 s⁻¹,91200 M⁻¹ s⁻¹,B1
6.53 nM,0.000544 s⁻¹,83200 M⁻¹ s⁻¹,B2
225 nM,0.0204 s⁻¹,90600 M⁻¹ s⁻¹,B3
242 nM,0.0163 s⁻¹,67500 M⁻¹ s⁻¹,B4

# Target: T1, Hs_CD123_6His-Avi (CD123 ECD-His-Avi …)
# Assay: competition ELISA: plate coated with CD123 ECD-His-Avi, biotinylated 10C4 as competitor, increasing unlabeled antibody, HRP-streptavidin; unit not given, x axis is log(concentration)
# Source text: (§1) FIGS. 15A-15B. Enzyme-linked immunosorbent assay (ELISA) with the original mouse 10C4 antibody and peptide encompassing the entire extracellular domain (ECD) of CD123 was used to test competitive binding of 10C4 compared to recombinant (FIG. 15A) human IgG1 versions and (FIG. 15B) human IgG4 versions of chimeric 10C4 and humanized 10C4 monoclonal antibodies. Plates were coated with CD123 ECD-His-Avi fusion protein and bound to biotinylated 10C4 antibody in the presence or absence of increasing amounts of competing unlabeled antibodies, as detected by HRP-Streptavidin.
row,Calculated concentration at 1/2 OD,Binder
1,1.41,B2
2,2.21,B3

# Target: T1, Hs_CD123_6His-Avi (CD123 ECD-His-Avi …)
# Assay: competition ELISA against biotinylated 10C4 on coated CD123 ECD-His-Avi; percent relative to the 10C4 row of the drawn table
# Source text: as §1
row,Immunoreactivity,Binder
1,135%,B2
2,212%,B3
